# About 100 (0.036%) of roughly 280,000 compounds were called active. The shares of active, inactive and inconclusive entries below differ from those in the screen. Calls follow the shape of the dose curve; as a rule, active = well fitted inhibition curve with a large enough effect in the signal ratio, with a control signal flat (not every such curve was filed as active); inconclusive = small, poorly fitted or top-dose-only effect, or effect the other way, or a change in a side signal; inactive = no such curve, though single readings can be large or run the other way; the % refers to the signal ratio. Potencies of inconclusive entries are doubtful fits and often do not repeat. “Side channel” marks fits to a control or component signal instead of the main read-out.
# Target: Muscleblind-like protein 1 (Homo sapiens) (UniProt Q9NR56)
# Chain of UniProt Q9NR56 (Q9NR56 whole entry, looked up): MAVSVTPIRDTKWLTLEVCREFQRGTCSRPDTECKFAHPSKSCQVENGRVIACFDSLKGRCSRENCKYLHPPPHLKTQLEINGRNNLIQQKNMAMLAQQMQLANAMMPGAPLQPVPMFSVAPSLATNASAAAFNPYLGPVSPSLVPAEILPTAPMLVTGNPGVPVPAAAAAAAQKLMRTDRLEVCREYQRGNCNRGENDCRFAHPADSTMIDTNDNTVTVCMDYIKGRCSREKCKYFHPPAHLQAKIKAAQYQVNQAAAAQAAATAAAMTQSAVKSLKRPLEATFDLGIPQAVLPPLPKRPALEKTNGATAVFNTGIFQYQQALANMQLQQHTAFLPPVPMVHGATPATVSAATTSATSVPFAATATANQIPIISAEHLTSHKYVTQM
# Experiment: qHTS Assay for Inhibitors of MBNL1-poly(CUG) RNA binding
# Settings: TR-FRET MBNL1-His/biotin-(CUG)12 binding, 665/545 ratio; activity change, negative = inhibition: at 57.5 µM (top of the series)
# Procedure, shortened: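 TR-FRET readout: Ex 340 nm, 665/545 nm emission ratio, normalized to buffer-only (basal) and MBNL1-(CUG)12 controls. Complex of MBNL1-His with Biotin-(CUG)12, compounds 92 nM–58 uM, incubated 60 min at room temperature.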
# % is scaled to controls: 0 for no effect and ±100 for the full control effect; potency is read from the fitted curve at half-maximal effect; tags tell the direction and shape of the fitted curve or compound fluorescence and quenching.
Structure (SMILES),Potency,"activity change, negative = inhibition"
CCOc1ccc(C(C(=O)NCC2CCCO2)N(Cc2cccc(OC)c2)C(=O)c2snc(C(N)=O)c2N)cc1 (centres undefined),"inconclusive: 3.16 µM [quencher, side channel, full curve]",
O=C(NCc1ccco1)c1ccc2c(=O)n(CCC3=CCCCC3)c(=O)[nH]c2c1,,inactive: 12.4%
O=C(O)c1ccc(N=Cc2nc(-c3ccco3)oc2O)cc1,"inconclusive: 28.2 µM [quencher, side channel, partial curve]",
Cc1cc(N)n(-c2ccc(S(=O)(=O)c3ccc(C(C)C)cc3)cc2)n1,,inactive: -3.62%
N#Cc1cnc(Nc2nc3ccccc3o2)nc1-c1ccccc1,,inactive: 6.99%
Cc1cc2c(c(=O)n1-c1ccccc1)C1O[C@](c3ccsc3)(Cc3ccccc31)O2,,inactive: -1.35% [at 11.5 µM]
CC(=O)Nc1ccc(S(=O)(=O)Oc2cccc(/C=N/N=C3/NC(=O)C(CC(=O)O)S3)c2)cc1 (centres undefined),"inconclusive: 25.1 µM [quencher, side channel, partial curve]",
CC1CCCN(C(=O)CSc2nnc3n(C4CCCC4)c(=O)c4ccccc4n23)C1 (centres undefined),"inconclusive: 2.24 µM [fluorescent, side channel, full curve, poor fit]",
CCOC(=O)c1cccc(COC(=O)c2cccc(-c3nnc(-c4ccccc4)o3)c2)c1,,inactive: -3.45%
O=c1[nH]c2ccccc2n1C1=CCNCC1,,inactive: -1.96%
CC(C)CNC(=O)c1coc(=O)c(Br)c1,"inconclusive: 25.1 µM [quencher, partial curve]",
CC(C)Oc1cccc(-c2cc(C(=O)NC(=S)N(C)c3ccccc3C(=O)O)c3ccccc3n2)c1,"inconclusive: 14.1 µM [quencher, side channel, single point]",
COc1ccccc1NC(=O)CCCCCN1C(=O)c2cccc3cccc(c23)C1=O,"inconclusive: 25.1 µM [quencher, single point]",
O=C(COc1ccccc1)NCC(=O)N/N=C/c1ccc(Cl)cc1,,inactive: -8.54%
CC1=NN(C(N)=S)C(=O)C1N=Nc1cccc(C)c1 (centres undefined),"inconclusive: 0.891 µM [quencher, side channel, full curve, poor fit]",
CCC(=O)N1CCN(c2c(Cl)cccc2[N+](=O)[O-])CC1,"inconclusive: 31.6 µM [quencher, side channel, single point]",
O=C(CC1c2ccccc2Oc2ccccc21)N1CCN(c2ccccn2)CC1,,inactive: -12.6%
O=Cc1c(N2CCCCCC2)nc2ccccn2c1=O,"inconclusive: 28.2 µM [quencher, side channel, single point]",
CCCN1CCN(CCCNC(=O)Cn2nc(-c3ccc(C)cc3)ccc2=O)CC1,"inconclusive: 11.2 µM [quencher, side channel, partial curve]",
CC(OC(=O)c1cccc([N+](=O)[O-])c1)C(=O)NCc1ccc2c(c1)OCO2 (centres undefined),"inconclusive: 28.2 µM [quencher, side channel, single point]",
CC(=O)N1c2ccc(S(=O)(=O)N3CCC(C(=O)Nc4cccc(F)c4)CC3)cc2CC1C (centres undefined),,inactive: 2.71%
CN(C)CCCNS(=O)(=O)c1ccc(-n2nnc3ccccc32)c([N+](=O)[O-])c1,"inconclusive: 8.91 µM [quencher, side channel, partial curve]",

Structure (SMILES),Potency,"activity change, negative = inhibition"
CCc1c(C)c2ccc(OCC(=O)N(C)C)c(C)c2oc1=O,,inactive: 17.7%
CC(OC(=O)c1ccc2c(c1)S(=O)(=O)c1ccccc1C2=O)C(N)=O (centres undefined),"inconclusive: 4.47 µM [quencher, side channel, full curve]",
Cc1ccnc(NC(=O)C2CCN(S(=O)(=O)c3cccc4nsnc34)CC2)c1,"inconclusive: 0.112 µM [quencher, side channel, full curve, poor fit]",
O=C(CCN1C(=O)/C(=C/c2cccs2)SC1=S)Nc1cccc(O)c1,"inconclusive: 14.1 µM [quencher, side channel, partial curve]",
COc1ccc(N2C(=O)CC(NCc3ccncc3)C2=O)cc1 (centres undefined),"inconclusive: 15.8 µM [quencher, side channel, partial curve]",
CC(=O)Nc1ccc2c(c1)C(=O)c1ccccc1C2=O,"inconclusive: 3.98 µM [quencher, side channel, full curve]",
O=C(O)c1cnn2c(C(F)(F)F)cc(-c3ccccc3)nc12,"inconclusive: 20 µM [quencher, partial curve]",
COc1ccc(OC)c(/C=C2\Oc3cc(OCC(=O)N4CC(O)C[C@H]4C(=O)O)ccc3C2=O)c1 (some centres undefined),"inconclusive: 7.08 µM [quencher, side channel, partial curve]",
COc1ccc(N2CCN(CCNC(=O)Nc3ccc([N+](=O)[O-])cc3OC)CC2)cc1,"inconclusive: 15.8 µM [quencher, side channel, partial curve]",
Cc1ccc(S(=O)(=O)CC(=O)c2ccccc2[N+](=O)[O-])cc1,"inconclusive: 25.1 µM [quencher, side channel, partial curve]",
COc1ccc(CNC(=O)C2=C(C)C(=O)OC23CCC(C)CC3)cc1 (centres undefined),,inactive: -10.3%
CCC(CC)C(=O)Nc1cccc(-c2ccc3nncn3n2)c1,"inconclusive: 25.1 µM [quencher, side channel, single point]",
Cc1cccc(N2CCN(S(=O)(=O)c3cccc4nonc34)CC2)c1C,,inactive: -0.938%
CCc1ccccc1NC(=O)CN(c1cccc(OC)c1)S(C)(=O)=O,"inconclusive: 1.41 µM [quencher, side channel, partial curve]",
N#Cc1c(-c2ccc3c(c2)OCO3)csc1N,,inactive: 3.87%
O=C(Cn1cc2c(n1)CCCC2)NCc1ccccn1,"inconclusive: 2.82 µM [quencher, side channel, full curve]",
O=C(Nc1ccc(Cl)cn1)C1COc2ccccc2O1 (centres undefined),"inconclusive: 6.31 µM [inhibitor, single point]",
c1coc(CNc2nc(-c3ccncc3)cs2)c1,"inconclusive: 20 µM [quencher, side channel, partial curve]",
CCN1C(=O)/C(=C2\SC(N3CCCCC3)=NC2=O)c2ccccc21,"inconclusive: 3.98 µM [quencher, side channel, full curve]",
CN(CC(=O)N1CCCCC1)S(=O)(=O)c1cccc2nsnc12,"inconclusive: 3.98 µM [quencher, side channel, full curve]",
O=C(OCc1c(Cl)cccc1Cl)c1ccncc1,"inconclusive: 3.55 µM [fluorescent, side channel, partial curve]",
Cc1ccc(CN2C(=O)N/C(=C\c3cccn3-c3cccc(C(=O)O)c3)C2=O)cc1,"inconclusive: 28.2 µM [quencher, side channel, single point]",

Structure (SMILES),Potency,"activity change, negative = inhibition"
CCN1C(=C(C#N)C#N)C=Cc2ccccc21,"inconclusive: 20 µM [quencher, side channel, partial curve]",
O=C(Cn1c(=S)[nH]c2ccccc21)c1ccccc1,,inactive: -2.68%
Cc1c(O)c(S(=O)c2ccccc2)c(=O)n(-c2ccccc2)c1-c1ccccc1 (centres undefined),"inconclusive: 11.2 µM [fluorescent, side channel, full curve, poor fit]",
Cc1cc(/C=C2/NC(=O)NC2=O)c(C)n1C,"inconclusive: 28.2 µM [quencher, side channel, partial curve]",
O=C(Nc1ccc(N2CCN(C(=O)c3ccccc3)CC2)cc1)c1ccc([N+](=O)[O-])o1,"inconclusive: 10 µM [quencher, side channel, partial curve]",
CCOc1ccc(OCCN2C(=O)c3ccccc3C2=O)cc1,"inconclusive: 39.8 µM [quencher, single point]",
Cc1ccc(C)c(OCCNc2ncccc2[N+](=O)[O-])c1,"inconclusive: 17.8 µM [quencher, side channel, partial curve]",
Cc1c(C(=O)NN)nn(-c2ccc(F)cc2)c(=O)c1C#N,"inconclusive: 5.01 µM [quencher, side channel, partial curve]",
CCC(CC)c1nnc(NC(=O)c2ccc3c(c2)OCO3)s1,,inactive: 3.07%
N=c1c2c(-c3ccccc3)c(-c3ccccc3)n(Cc3ccco3)c2ncn1CCCn1ccnc1,,inactive: 1.67%
ONC(=Nc1ccc(Cl)cc1)c1ccccc1,,inactive: -0.619%
O=C(CCNS(=O)(=O)c1cccc2nonc12)NC1CCCc2ccccc21 (centres undefined),"inconclusive: 17.8 µM [quencher, side channel, partial curve]",
CC(=O)c1ccc2noc(-c3cccc(F)c3)c2c1,"inconclusive: 3.55 µM [quencher, side channel, partial curve, poor fit]",
Cc1nc(SCC(=O)N2CCc3ccccc3C2)c2c(C)c(C)sc2n1,"inconclusive: 39.8 µM [quencher, side channel, single point]",
CCOc1ccccc1NC(=S)NNS(=O)(=O)c1c(C)cc(C)cc1C,,inactive: -17.7%
O=C(Cc1ccc(Br)cc1)N/N=C/c1cccnc1,,inactive: 13.3%
Cc1cccc(NC(=O)c2ccc(-n3cccn3)c([N+](=O)[O-])c2)c1,"inconclusive: 22.4 µM [quencher, side channel, partial curve]",
c1ccc(Cc2nnc3sc(-c4cccs4)nn23)cc1,"inconclusive: 31.6 µM [quencher, side channel, partial curve]",
COc1ccc(/C=C/c2cc(-c3ccc(C)cc3)o[n+]2C)cc1,,inactive: 13.3%
C=CCOc1ccc(/C=C/C(C)=N\O)cc1,"inconclusive: 35.5 µM [quencher, side channel, partial curve]",

# Source: PubChem BioAssay AID2675 (National Center for Advancing Translational Sciences (NCATS), 2010)
